Data published in PubChem BioAssay AID504339 (National Center for Advancing Translational Sciences (NCATS), 2011).
Hit rate of the full screen: of about 390,000 compounds, about 17,000 (4.4%) were called active. Inconclusive results, whose numbers are uncertain, are shown with a selection of clear calls. Calls follow the shape of the dose curve; as a rule, active = well fitted inhibition curve with a large enough effect; inconclusive = small, poorly fitted or top-dose-only effect; inactive = no such curve, though single readings can be large or run the other way. Potencies beside an inconclusive call are fits to weak or partial responses and may not hold up.

Target: Lysine-specific demethylase 4A (Homo sapiens) (UniProt O75164)
UniProt O75164, sequence (O75164 whole entry, looked up, the tested form may be a part): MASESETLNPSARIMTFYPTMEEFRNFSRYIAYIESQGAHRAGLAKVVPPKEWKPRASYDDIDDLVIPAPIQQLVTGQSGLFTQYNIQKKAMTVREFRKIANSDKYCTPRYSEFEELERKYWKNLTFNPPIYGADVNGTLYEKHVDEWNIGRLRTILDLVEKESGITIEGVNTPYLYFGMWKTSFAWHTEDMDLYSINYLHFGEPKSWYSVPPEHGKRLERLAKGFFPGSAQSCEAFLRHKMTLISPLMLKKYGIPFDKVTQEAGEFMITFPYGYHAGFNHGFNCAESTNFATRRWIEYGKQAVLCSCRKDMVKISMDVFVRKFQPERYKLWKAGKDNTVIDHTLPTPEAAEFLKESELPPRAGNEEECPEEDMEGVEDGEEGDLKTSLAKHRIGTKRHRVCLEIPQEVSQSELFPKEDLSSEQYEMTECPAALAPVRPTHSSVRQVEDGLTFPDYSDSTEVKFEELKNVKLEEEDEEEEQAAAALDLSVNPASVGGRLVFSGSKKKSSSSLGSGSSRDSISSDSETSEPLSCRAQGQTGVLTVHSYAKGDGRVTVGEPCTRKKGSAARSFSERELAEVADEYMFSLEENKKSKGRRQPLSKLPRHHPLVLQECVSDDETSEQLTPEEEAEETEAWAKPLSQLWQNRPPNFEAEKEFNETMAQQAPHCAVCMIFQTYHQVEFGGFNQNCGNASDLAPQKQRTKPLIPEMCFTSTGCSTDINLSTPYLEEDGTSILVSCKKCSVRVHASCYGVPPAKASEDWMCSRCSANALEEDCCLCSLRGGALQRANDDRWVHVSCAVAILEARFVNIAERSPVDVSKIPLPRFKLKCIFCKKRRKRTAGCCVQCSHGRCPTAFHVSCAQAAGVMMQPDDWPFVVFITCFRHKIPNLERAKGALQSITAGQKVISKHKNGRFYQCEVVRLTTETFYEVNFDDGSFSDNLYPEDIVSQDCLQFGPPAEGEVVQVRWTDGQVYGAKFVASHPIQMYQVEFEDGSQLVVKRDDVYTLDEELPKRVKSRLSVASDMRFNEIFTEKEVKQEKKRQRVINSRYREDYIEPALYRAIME
Test: qHTS Assay for Inhibitors of JMJD2A-Tudor Domain; also: nearly all actives have a fitted effect of over 50% in size
Conditions: AlphaScreen JMJD2A-Tudor / H3K4me3 peptide binding; activity change, negative = inhibition: at 114 µM (top of the series)
% is scaled to controls: 0 for no effect and ±100 for the full control effect; potency is read from the fitted curve at half-maximal effect; tags tell the direction and shape of the fitted curve.

Activity change, negative = inhibition, inactive:
COc1ccc(Nc2nnc(SCc3cn4c(C)cccc4n3)s2)cc1 -31.9%, O=C(O)CSCC(=O)N1CCN(S(=O)(=O)c2ccccc2)CC1 -10.7%, CCCc1[nH][nH]c(=O)c1C(c1cccc(Cl)c1)C(C#N)C#N (stereo not drawn) -28.6%, O=C(CN1C(=O)CCn2nc(-c3ccccc3)cc21)NCc1ccc(F)cc1 -14.2%, COc1ccc(F)cc1S(=O)(=O)NCC(c1ccco1)S(=O)(=O)c1ccc(F)cc1 (stereo not drawn) -16.6%, COc1ccc(Cn2c(C(=O)O)c(CNCCc3ccco3)c3ccc(C)cc32)cc1 -24.8%, CC1(c2nnc(-c3cccc(Cl)c3)o2)CC(c2ccc(OC(F)(F)F)cc2)=NO1 (stereo not drawn) 19.6%, CCOC(=O)c1cnc2c(ccc3ccccc32)c1Nc1cccc(C(F)(F)F)c1 -2.29%, NC(=S)Nc1nc2ccccc2s1 -18.1%, COc1ccc(C=O)cc1COc1ccc(NC(C)=O)cc1 -23.1%, COc1ccccc1N1CCN(C(=O)c2coc(=O)c(Br)c2)CC1 -3.45%, COc1ccccc1NC(=O)NCC(=O)Nc1c(C)cccc1C -16.8%, Cc1cc2c3c([nH]c2cc1S(=O)(=O)N1CCC2(CC1)OCCO2)CC(C)(C)CC3=O 25.3%, CC(C)[C@@H](CO)N(C)S(=O)(=O)c1ccccc1Br -20.9%, CCc1ccc(-c2csc(NC(=O)Oc3ccccc3)n2)cc1 -30.8%, Cc1cccn2c(=O)c3cc(C(=O)NC4CCCC4)c(=N)n(CCCN4CCOCC4)c3nc12 -27.3%

Activity change, negative = inhibition, inconclusive:
CCOc1ccc2c(c1)C(c1cccs1)=NNC(c1cccnc1)=N2 -46.4% [inhibitor]

Potency, active:
Cn1nccc1C(=O)NC(=S)Nc1cc(Cl)cc(Cl)c1 22.4 µM, O=C(CN1CCN(c2ccc(F)cc2)CC1)N1CCC(Cc2ccccc2)CC1 11.2 µM, Cc1ccc(C(C)C)c(OCCCCN2CCNCC2)c1 7.08 µM, Cc1sc2nc(C3CC3)nc(N3CCN(C(=O)c4ccc(Cl)cc4)CC3)c2c1C 44.7 µM, CCN1CCC2(CC1)N=C(c1ccc(F)cc1)C(=S)N2C(=O)c1ccc(C)cc1 31.6 µM, CCCCOCCCNCc1cccn1CCN1CCOCC1 7.94 µM, CCN1CCN(c2ncnc3c2c(-c2ccccc2)cn3-c2ccc(F)cc2)CC1 39.8 µM, Cn1ncc(Cl)c1C(=O)Nc1cccc(Cl)c1 89.1 µM, COc1cccc(OC)c1C(=O)N1CCN(Cc2cccnc2)CC1 5.01 µM, O=C(CCN1CCc2ccccc2C(O)(c2ccccc2)C1)c1ccc2c(c1)OCCO2 (stereo not drawn) 79.4 µM, COc1cccc(C2CC(=O)Nc3c2c(=O)[nH]c2ncnn32)c1 (stereo not drawn) 35.5 µM, C#CCN1C(=O)S/C(=C\c2ccc(-c3ccc(C(=O)O)cc3C)o2)C1=O 89.1 µM, CCn1nc(C(=O)OCC(=O)c2ccc3c(c2)OCCO3)c2ccccc2c1=O 50.1 µM, COC(=O)c1c(-c2ccc(S(C)(=O)=O)cc2)sc2ccc(OC)cc12 44.7 µM, COCc1n[nH]c(=S)n1-c1cccc2ccccc12 20 µM, Cc1cc(C(F)(F)F)n2[nH]c(=O)c(N=Nc3ccccc3)c2n1 28.2 µM, COc1ccc(CNCc2ccc(C(F)(F)F)cc2)cc1OC 89.1 µM

Potency, inactive:
NCCc1cnc[nH]1

Potency, inconclusive:
COc1ccc(C(=O)/C=C/c2ccc(O)cc2)c2c1CC(O)C(C)(C)O2 (stereo not drawn) 79.4 µM [inhibitor, single point], Cc1ccc(-c2cc(C(=O)Nc3nccs3)c3ccccc3n2)o1 100 µM [inhibitor, single point], NC(=O)c1ccsc1NC(=O)COC(=O)/C=C/c1ccc([N+](=O)[O-])cc1 11.2 µM [inhibitor, partial curve, poor fit], O=C(Nc1ccc2ccccc2c1[N+](=O)[O-])c1ccccc1 28.2 µM [inhibitor, partial curve], CCc1ccc(/C=N/Nc2nn[nH]n2)cc1 28.2 µM [inhibitor, full curve], Cc1nnc(Cl)c2nn(-c3ccccc3)c(C)c12 25.1 µM [inhibitor, full curve], COc1cc([N+](=O)[O-])ccc1-c1ccc(/C=C2\C(=O)ON=C2c2ccccc2)o1 50.1 µM [inhibitor, partial curve, poor fit], Cc1ccc(Oc2nc(CN3CCOCC3)nc3sc4c(c23)CCC(C)C4)cc1C (stereo not drawn) 63.1 µM [inhibitor, partial curve, poor fit], CCN(C(=O)COC(=O)/C=C/c1ccco1)C1CCCCC1 44.7 µM [inhibitor, partial curve], CC1Cc2ccccc2N1C(=O)CSc1nnc(C2CC2)n1C (stereo not drawn) 17.8 µM [inhibitor, partial curve], CCCCNc1c(-c2cccc(Sc3ccc(OC)cc3)c2)nc2ccccn12 50.1 µM [inhibitor, partial curve], COc1ccc(-c2c(C)n([O-])c(C)c(C)[n+]2=O)cc1 3.98 µM [inhibitor, single point], O=C(N/N=C/c1ccc([N+](=O)[O-])o1)c1ccccc1NS(=O)(=O)c1cccs1 89.1 µM [inhibitor, partial curve], CCc1ccc([C@@H]2CC=C(C(=O)O)[C@H](c3ccc(C(C)(C)C)cc3)N2S(=O)(=O)c2ccc(C)cc2)cc1 79.4 µM [inhibitor, partial curve], O=C(Nc1ccc2oc(-c3ccncc3)nc2c1)c1ccc(F)cc1 39.8 µM [inhibitor, partial curve], COc1ccc(N2CCN(CCNC(=O)c3c(C)cc(=O)oc3C)CC2)cc1 50.1 µM [inhibitor, partial curve], CCOC(=O)c1ccc(S(=O)(=O)N2CCN(C(=O)CSc3nc4ccccc4o3)CC2)cc1 6.31 µM [inhibitor, single point], O=[N+]([O-])c1ccccc1NCc1ccc(Cl)cc1 20 µM [inhibitor, full curve], Cn1c(=O)c2c(-c3ccc(Br)cc3)n(CCc3ccccc3)cc2n(C)c1=O 35.5 µM [inhibitor, partial curve], CN(C)c1ccc(N2C(=O)CC(Sc3ccccc3C(=O)O)C2=O)cc1 (stereo not drawn) 70.8 µM [inhibitor, single point], CC(C)(CO)Nc1nc(N2CCCC2)nc(N2CCCC2)n1 39.8 µM [inhibitor, single point], CCC1=Nc2cc(C(=O)O)ccc2Sc2ccc(Cl)cc21 100 µM [inhibitor, single point], COC(=O)c1ccc(Nc2cc(C)nc(-c3ccccc3O)n2)cc1 89.1 µM [inhibitor, single point], CC(C)N(C(=O)[C@H]1C[C@H](CC(=O)NCc2ccco2)C(=O)N2CCc3c([nH]c4ccc(Cl)cc34)[C@]12C)C(C)C 89.1 µM [inhibitor, partial curve], C(=C\c1ccccc1)/CN1CCN(c2ncnc3c2oc2ccccc23)CC1 31.6 µM [inhibitor, full curve], O=C(c1ccc(S(=O)(=O)c2cccc(Cl)c2)c([N+](=O)[O-])c1)N1CCN(Cc2ccccc2)CC1 14.1 µM [inhibitor, full curve], CCCC(C)NC(=O)COC(=O)c1cccc(NS(C)(=O)=O)c1 (stereo not drawn) 22.4 µM [inhibitor, single point], CCN(C(=O)CN1C(=O)COc2ccc(S(=O)(=O)N3CCCCCC3)cc21)c1cccc(C)c1 17.8 µM [inhibitor, full curve], COc1ccc(OC)c(NC(=O)CSc2nnc3ccc(-c4ccccn4)nn23)c1 31.6 µM [inhibitor, partial curve], CCc1cc2cc3c(cc2nc1SCC(=O)N1CCN(C(=O)c2ccco2)CC1)OCO3 3.55 µM [inhibitor, full curve, poor fit], O=c1oc2ccccc2nc1/C=C(O)/C=C/c1ccc(F)cc1 89.1 µM [inhibitor, partial curve], Cc1cc(C(=O)N/N=C/C=C/c2ccccc2)c(C)o1 63.1 µM [inhibitor, partial curve, poor fit], Cc1ccc(C(C)C)c(OCC(=O)Nc2ccccc2N2CCN(C)CC2)c1 79.4 µM [inhibitor, partial curve], COc1ccc(/C=C/C(=O)Nc2ccc3c(c2)CCC3)cc1OC 79.4 µM [inhibitor, partial curve], CCCc1nn(-c2ccccc2)c2c1C(c1cccs1)C(C#N)=C(N)O2 (stereo not drawn) 56.2 µM [inhibitor, partial curve], O=C(CSc1ccccc1)NC1=NCCS1 39.8 µM [inhibitor, single point], COc1ccc(S(=O)(=O)NCC(c2ccc(N(C)C)cc2)N2CCCC2)cc1 (stereo not drawn) 35.5 µM [inhibitor, partial curve, poor fit], C/C(=C\C(=O)c1ccc(C)cc1)Nc1cccc(O)c1 56.2 µM [inhibitor, partial curve]
